Among the data in the RNAGym collection of RNA variant scans (doi:10.7554/elife.90254) are self-cleavage values, retold here.

Read counts are not given, so values of variants with three or more changes are uncertain.

To fix the notation:
B1: LINE1-mini (parent)
chain: GGCAGAGCUCAACACAGCGUGGCAAAGUGGCUGUGGCUAGACUGCC

In this series the parent is B1. The series can be described thus: self-cleavage, relative activity (ratio to wild type); higher = more cleavage; in vitro, sequencing; the parent is a self-cleaving ribozyme.
GGCAGAGCUCAACACAGCGUCGCAAAGGAGCUGUGGCUAGACUGCU: the self-cleavage came to 0.33.

With GGCAGACCUCAACACGGUGUGGCAAAGUGGCUGUCGCUAGACUGCC, the self-cleavage was 0.01.

Regarding GGCAGAGCUCAAUACAGCGUUGCAAAGUGGCUGUGGCUAGACUUAC, the self-cleavage was found to be 0.04.

As for GGCAGAGCUCAACACUGCGUGGCAAAGUCGCGGUGGCUAGACUGCC, the self-cleavage worked out at 0.59.

GGCAGAGCUCAACACAGCGUGGAAAAGUGGCUGUGCCUAGAAUGCC: the self-cleavage stood at 0.03.

In the case of GGCAGAGCGCAACACAGCGUGCCAAAGUGAGUGUGGUUAGACUGCC, the self-cleavage is 0.02.

GGCAGAGCUCGACACAGCGUAGUAAAGUGGUUGUGGCUAGACUGCC: the self-cleavage was 0.03.

GGCAGAGCUCAACAUAGCGCGGCAAAUUGGCUGUGGCUAGCCUGCC: the self-cleavage was found to be 0.04.

As for GGCAGAGCUGAACACAGCGUGGCCAAGUGGCAGUGGCUAGACUGCC, the self-cleavage came to 0.05.

Regarding GGCAGAGCUCAACCCAGCGUAGCAAAGUGGCUGUGUCUAGACUGCC, the self-cleavage was 0.04.

On to UGCGGAGCUCCACACAGCGUGGCAAAGUGGCUGUGACUAGACUGCU, for which the self-cleavage came out at 0.03.

Consider GGCAGAGCCCAACACAGCGUGGCAAACUCGCUAUGGCUAGACUGCU, for which the self-cleavage is 0.02.

Regarding GGCAGAGCGCAACACAGCGUGGCAAACUGGCUGUGGAUAGACUGCC, the self-cleavage turned out to be 0.09.

With GGCAGCGCUCAAGACAGCGUGGCAAAGUGGCUGUGGCGAGACUGCC, the self-cleavage was found to be 0.01.

GGCAGAGCUCAACACAGCGUGGCAAAGUCGCUGUGGCUAAAGUCCC: the self-cleavage was 0.02.

For the variant GGCAGAGCACAACACACCGUGGCAAAGUGACUGUGGCUAGACUGCU, the self-cleavage stood at 0.15.

On to GGCAGAGCUCAACACAGAUUGGCAAAGUAGCUGUGGCUAGACUGCC, for which the self-cleavage was 1.25.

Regarding GGCAGAGCUCAACACAGUGGGUCAAAGUGGCUGUGGCUAGACUGCC, the self-cleavage was 0.79.

As for GGCAGAGCGCGACAUAGCGUGGCAAAUUGGCUGUCGGUAGAUUGCC, the self-cleavage was determined as 0.01.

In the case of GGCAGAGUUCAACACAGCGUGGCAAAGUGGCUGGGGCUCGAGUGCC, the self-cleavage is 0.02.

With GGCAGAGCUCAACGCAUCGUGGCAAAGUGGCAGUGGCUAGACAGCC, the self-cleavage turned out to be 0.04.

GGCAGAGCUCUACACAGCGUGGCAAAGGGGCUGGGGCUAGACUUCC: the self-cleavage stood at 0.

Turning to GGCAGAGCUCAACACAGCGUGGAAAAGUGGCUGUGCGUAGACUGCC, the self-cleavage was 0.02.

GGCAGACCUCAACACAGCGCGGCAAUGUGGCUGUGGCUAGACUGCC: the self-cleavage was found to be 0.01.

On to GGCAGAGGUUAACACAGCGUGACAAAGUGGCUGUGGCUAGACUGCC, for which the self-cleavage was found to be 0.04.

For GGCUGGGCUCAACACAGCGUGGCAAAGUGGCUGUGGCUAGAAUGCC, the self-cleavage is 0.

Take GGCAGUGCUCAACACGGCGUGGCAAAGUGGCUUUGGCUAGACUGCC: the self-cleavage stood at 0.01.

Consider GGCAGAGCUCAACACAGCGGCACAAAGUGGCUGUUGCUAGACUGCC, for which the self-cleavage turned out to be 0.06.

Consider GGCAGAGCUCAAAACAGCGUGGCAUAGUGGCUGUGGCUAGACUGCA, for which the self-cleavage was found to be 0.09.

Take GUCAUAGCUCAACACAGCGUGGCAAAAUGGCUGUGGCUAGACUGCC: the self-cleavage is 0.02.

Turning to GGUAGAGCUUAACCCAGCGUGCCAAAGUGGCUGUGGCUAGACUGCC, the self-cleavage stood at 0.05.

On to GGCAGGGCUCAACGCAGCGUGGCAAAGUGGCUGUGUCUAGACUGUC, for which the self-cleavage came out at 0.04.

On to GGCAGAACUCAACACAGCGUGGUAAAGUGGUUGUGUCUAGACUGCC, for which the self-cleavage amounted to 0.02.

With GGCAGAGCUCCACACAGCGUGGCAGAGUGGCAGUGGCUAGACUGCC, the self-cleavage worked out at 0.01.

Turning to GGCAUAGCUCAACACAGCGUGGCAAACUGGCUCUGGCUAGACUUCC, the self-cleavage was 0.11.

Take GGCAGAACUCAACACAACGUGGCAAAGUGGUUGUGGCUAGACUGCC: the self-cleavage is 0.07.

In the case of GGCAUAGCUCACCACAGGGUGGCAAAGUGGCUGUGGCUAGACUGCU, the self-cleavage is 0.01.

For the variant GGCAGAGCUCAAAACAGCGUGGAAAAGUGGCAGUGGCUAGACUGCC, the self-cleavage was determined as 0.06.

As to GGCAGAGCUCAAAACAGCUUGGCAAAGUGGCUGUGGCUAGUCUGGC, the self-cleavage is 0.02.

For GGCAGAGCUUAACCCUGCGUGGCAAAGUGGCUGUCGCUAGACUGUC, the self-cleavage worked out at 0.04.

As to GGCAGAUCUCAACACAGCGUGGUAAAGUGGCUCUGGCUAGAAAGCC, the self-cleavage is 0.05.

For GGCGGAGCUCAACACAGCGUGGCAAAGUGGCUGUCGCAAGAUUGCC, the self-cleavage was determined as 0.1.

GGCAGAGCUCAACACAGCGGGUCAAAGUAGCUGUGGCUGGACUGCA: the self-cleavage came to 0.14.

As to GGCAGAGCUCCACACAGCGUGGCAAAAUGGCUGUGGCUAGACUCCC, the self-cleavage was determined as 0.02.

Take GGCAGAGCUCAACAUAGGGUGGCAAAGUGGCUGUGGCUUGACUACC: the self-cleavage came to 0.04.

As for GGCCGAGCUCAACACAGCUUAGCAACGUGGCUGUGGCUAGACUGCC, the self-cleavage worked out at 0.12.

Regarding GGCAGAGCUUAGGACAGCGUGGCAAAGUGGCUGUGGCUAGACUGCC, the self-cleavage worked out at 0.03.

Turning to GGCAGAGCUCAACACAGCCAGGCAAAGUGGCUAUGGCUAGACUGCC, the self-cleavage was 0.04.

As to GCCAGAGCUCAACACAGCGUGGUAAUGUGGCUGUGGCUAGACUGCC, the self-cleavage was determined as 0.15.

With GGCAGGGUUCAACUCAGAGUGGCAAAGUCGCUCUGGCACGACUGCC, the self-cleavage is 0.02.

GCCUGAGUUCUACACAGCGUGACAAAGAGGCUGGGGCUAGACUACC: the self-cleavage was 0.

On to GGCAGAGCUCAACACAGCGUGGCAUAGUGGCUGCGGAUAGACUGCC, for which the self-cleavage is 0.01.

In the case of GGCAGAGGUCAACACUGCCUGGCAAAGUGGCUGUGGCUAGACUCCC, the self-cleavage was determined as 0.04.

As for GGCAGAGGUCAACACAGCUUGGCAAAGUGUCUGUGGCUAGACUCCC, the self-cleavage turned out to be 0.04.

As for GGCAGAGCUCAACACAGCCUGGCAAAGUGGAGCUGGCUAGACUGUC, the self-cleavage stood at 0.03.

As for GGCAGAGCUCAACACUGCGCGGCAGAGUAGCUGUGGCUAGACUGCC, the self-cleavage amounted to 0.02.
